Assay results: PubChem BioAssay AID588342 (National Center for Advancing Translational Sciences (NCATS), 2011)
About 25,000 (6.9%) of roughly 360,000 compounds were called active. Inconclusive means that the source gave no clear call. Such entries were picked first, then a sample of the others. Calls come from the whole dose curve; as a rule, active = well fitted inhibition curve with a large enough effect; inconclusive = small, poorly fitted or top-dose-only effect; inactive = flat fitted curve, though single readings scatter. A potency beside an inconclusive call is a rough fit, not a confirmed value.

Each compound was assayed against Luciferin 4-monooxygenase (Photinus pyralis) (UniProt P08659) (assay: qHTS profiling assay for firefly luciferase inhibitor/activator using purifed enzyme and Km concentrations of substrates (counterscreen for miR-21 project)). Conditions: purified FLuc, luminescence inhibition; series mostly up to 57.5 µM; activity change, negative = inhibition: at the top concentration.
Method in brief: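 Purified P. pyralis luciferase, 10 nM final, with Km-level 10 uM D-luciferin and 10 uM ATP in 50 mM Tris acetate pH 7.5, 10 mM Mg acetate, 0.01% Tween-20, 0.05% BSA; 6-point qHTS titration about 60 µM downward; luminescence read.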
Note: nearly all actives have a fitted effect of over 55% in size.
Potency is the fitted concentration of half-maximal effect; tags give direction and shape of the fitted curve.
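Throughout, for activity change, negative = inhibition: plate controls were vehicle for no effect and reference inhibitor for full effect.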

UniProt P08659, sequence (P08659 whole entry, looked up): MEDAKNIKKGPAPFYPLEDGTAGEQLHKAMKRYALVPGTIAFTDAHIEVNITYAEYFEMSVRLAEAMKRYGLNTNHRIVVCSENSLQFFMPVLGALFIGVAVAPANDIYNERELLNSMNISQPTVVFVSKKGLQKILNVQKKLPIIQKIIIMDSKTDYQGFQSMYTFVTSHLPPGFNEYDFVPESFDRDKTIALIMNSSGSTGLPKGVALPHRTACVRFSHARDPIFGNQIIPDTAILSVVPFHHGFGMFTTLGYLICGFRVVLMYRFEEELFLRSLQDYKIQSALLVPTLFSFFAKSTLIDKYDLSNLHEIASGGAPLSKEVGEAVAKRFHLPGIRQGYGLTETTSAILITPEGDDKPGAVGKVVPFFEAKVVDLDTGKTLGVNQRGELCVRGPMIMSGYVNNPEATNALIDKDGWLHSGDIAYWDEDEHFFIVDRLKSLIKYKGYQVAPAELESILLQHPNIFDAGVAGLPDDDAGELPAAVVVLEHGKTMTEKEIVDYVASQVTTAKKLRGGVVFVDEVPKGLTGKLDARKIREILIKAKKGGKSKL

Row | SMILES | Potency | activity change, negative = inhibition
1 | COc1ccc(C)cc1NC(=O)Cc1ccc(NC(=O)N2CCCCc3ccccc32)cc1 | inconclusive: 12 µM [inhibitor, partial curve, poor fit] | 
2 | CCc1noc(C)c1C(=O)Nc1nc(-c2ccccc2)cs1 | active: 19 µM | 
3 | Cc1cc(C)cc(NC(=O)C2CCCN2S(=O)(=O)c2cccc3cccnc23)c1 (stereo unspecified) |  | inactive: 3.8%
4 | COC(=O)c1ccc(CNC(=O)c2ccc3c(c2)OCCO3)cc1 | inconclusive: 37.9 µM [inhibitor, partial curve, poor fit] | 
5 | CCn1cc(C(=O)NCc2ccccc2Cl)c(=O)c2cc(S(=O)(=O)N3CCOCC3)ccc21 | inconclusive: 15.1 µM [inhibitor, partial curve, poor fit] | 
6 | CCOC(=O)CN1C(=O)CCSc2ccc(Cl)cc21 |  | inactive: -1.16%
7 | COc1cc(/C=C/C(=O)N(C)c2ccccc2C(=O)O)cc(OC)c1OC | inconclusive: 33.8 µM [inhibitor, single point] | 
8 | Cc1ccc(CC(=O)O/N=C(\N)c2ccccn2)cc1 | active: 4.78 µM | 
9 | COc1ccc(N(CC(=O)NCc2ccco2)C(=O)CNS(=O)(=O)c2ccc(Cl)cc2)cc1 |  | inactive: 0.53%
10 | c1coc(-c2nnc(-c3ccco3)nn2)c1 | active: 16.9 µM | 
11 | CCCCC(=O)Nc1cccc(-c2nc3ccccc3s2)c1 | inconclusive: 8.49 µM [inhibitor, full curve] | 
12 | COc1ccc(-n2ncc3c(=O)n(CC(=O)NC(C)C)cnc32)cc1 |  | inactive: -1.75%
13 | Cc1cccc(-n2ccnc2SCC(=O)Nc2cc(C(F)(F)F)ccc2Cl)c1 |  | inactive: -5.71%
14 | Cc1ccc(NC(=O)CCSCCC(=O)Nc2ccc(C)c(C)c2)cc1C | active: 16.9 µM | 
15 | O=C(NCCc1ccccc1)c1ccc(-c2ccccc2Cl)o1 | inconclusive: 30.1 µM [inhibitor, single point] | 
16 | O=C(Nc1ccc(NC(=O)C2CCCCC2)nc1)c1ccccn1 | active: 16.9 µM | 
17 | CCCNC(=O)OCCC12CC3CC(CC(C3)C1)C2 | active: 12 µM | 
18 | O=C(N/N=C/c1c[nH]c2ccccc12)c1cc(Cl)ccc1O | active: 16.9 µM | 
19 | Cc1ccc(CNC(=O)C2CC(c3cccc([N+](=O)[O-])c3)=NO2)o1 (stereo unspecified) | inconclusive: 19 µM [inhibitor, partial curve] | 
20 | COc1cc(/C=N/NC(=O)c2ccc3c(c2)OCCO3)cc(Br)c1O | active: 10.7 µM | 
21 | CC1=NNC(=O)/C1=C\c1cn(-c2ccccc2)nc1-c1cccs1 | inconclusive: 26.9 µM [inhibitor, single point] | 
22 | Nc1cc(C(F)(F)F)ccc1Nc1ccccc1 | inconclusive: 21.3 µM [inhibitor, partial curve, poor fit] | 
23 | Clc1nc(Nc2ccccc2)nc(Nc2ccccc2)n1 | active: 23.9 µM | 
24 | COC(=O)c1cc2oc3ccccc3c2n1CC(=O)Nc1ccc(C)cc1Cl |  | inactive: 1%
25 | O=C(N/N=C1\CCCc2ccccc21)c1ccc([N+](=O)[O-])cc1Cl | inconclusive: 23.9 µM [inhibitor, partial curve, poor fit] | 
26 | COc1ccccc1-c1nc(C#N)c(N2CCCCCC2)o1 | inconclusive: 26.9 µM [inhibitor, single point] | 

Row | SMILES | Potency | activity change, negative = inhibition
27 | CCCNC(=O)c1ccccc1NC(=O)c1ccc(CSc2ccccc2)cc1 | inconclusive: 21.3 µM [inhibitor, single point] | 
28 | COc1cccc(CNC(=O)c2ccc(CN3CC(=O)N4CCCCC4C3=O)cc2)c1 (stereo unspecified) |  | inactive: -5.76%
29 | COc1cccc(NC(=O)CN2C(=O)NC(c3ccccc3)(c3ccccc3)C2=O)c1 | inconclusive: 30.1 µM [inhibitor, partial curve, poor fit] | 
30 | CCn1c(C(=O)NCc2ccccc2)cc2sc(Cl)cc21 | inconclusive: 10.7 µM [inhibitor, partial curve, poor fit] | 
31 | CCOC(=O)c1sc(NC(=O)C2CC2)cc1C | inconclusive: 23.9 µM [inhibitor, partial curve] | 
32 | O=C(NCc1ccc(F)cc1Cl)c1ccc(CSCc2ccccc2Cl)o1 | inconclusive: 37.9 µM [inhibitor, partial curve, poor fit] | 
33 | Cn1c(=O)n(C)c2cc(NC(=O)CSc3nc4ccccc4c(=O)[nH]3)ccc21 | inconclusive: 37.9 µM [inhibitor, partial curve, poor fit] | 
34 | CCCCN1C(=O)/C(=C2\SC(N3CCCCC3)=NC2=O)c2ccccc21 | active: 2.13 µM | 
35 | C/C(=N\NC(=O)CC(C)C)c1ccc(N2CCCCC2)cc1 | inconclusive: 23.9 µM [inhibitor, single point] | 
36 | Cc1ccc(-n2ncc3c(SCC(N)=O)ncnc32)cc1C | active: 5.36 µM | 
37 | COc1ccc(CC(=O)OC(C)C(=O)c2ccc(C)cc2)cc1 (stereo unspecified) |  | inactive: -1.79%
38 | CCOC(=O)n1c(=O)n(Cc2ccc(Cl)cc2Cl)c2ccccc21 | inconclusive: 37.9 µM [inhibitor, single point] | 
39 | Cc1nc2ccc(C(=O)Nc3ccccc3Cl)cc2s1 | active: 16.9 µM | 
40 | Cc1ccc(CNC(=O)CCCc2ccccc2)cc1 | inconclusive: 37.9 µM [inhibitor, partial curve, poor fit] | 
41 | COc1ccc(NC(=O)C(=O)c2cn(CC(=O)N3CCCC3)c3ccccc23)cc1OC | inconclusive: 21.3 µM [inhibitor, single point] | 
42 | Cc1ccc(NC(=O)/C=C/c2cccc(C(F)(F)F)c2)cc1 | inconclusive: 4.78 µM [inhibitor, partial curve, poor fit] | 
43 | Cc1ccc(C(=O)Nc2cccc(-c3ccc(N4CCOCC4)nn3)c2)cc1C | active: 2.13 µM | 
44 | O=C(Nc1cc2c(cc1Cl)OCCCO2)c1ccco1 | active: 10.7 µM | 
45 | CCC(=O)Nc1nc2ccc(NC(C)=O)cc2s1 | inconclusive: 30.1 µM [inhibitor, partial curve, poor fit] | 
46 | CCc1cc(C(=O)NCC(c2cccs2)N2CCOCC2)sc1C (stereo unspecified) |  | inactive: 4.04%
47 | COCCN1Cc2cccc(C(=O)Nc3ccc(C)c(C)c3)c2C1=O | active: 7.57 µM | 
48 | CC1CCc2sc3nc(N4CCN(CCO)CC4)n4ncnc4c3c2C1 (stereo unspecified) | inconclusive: 37.9 µM [inhibitor, partial curve, poor fit] | 
49 | O=C(OCC(=O)N1CCN(c2ccccc2)CC1)c1ccccc1[N+](=O)[O-] | active: 6.75 µM | 
50 | O=C(OCc1csc(-c2ccccc2)n1)c1ccc(O)cc1 | active: 19 µM | 
51 | CCS(=O)(=O)N1CCN(Cc2ccc([N+](=O)[O-])cc2)CC1 |  | inactive: 0.118%
52 | N#C/C(=N\Nc1ccc(S(=O)(=O)N2CCc3ccccc32)cc1)C(N)=S | inconclusive: 21.3 µM [inhibitor, partial curve, poor fit] | 

Row | SMILES | Potency | activity change, negative = inhibition
53 | Clc1c(Cl)c(Cl)c2n[nH]nc2c1Cl |  | inactive: -10.4%
54 | Cc1cccc(-c2cc(C(=O)O)c3c(-c4ccc(F)cc4)[nH]nc3n2)c1 | inconclusive: 7.57 µM [inhibitor, partial curve] | 
55 | CCn1c(SCC(=O)Nc2nc(-c3ccccc3)cs2)nnc1-c1ccccc1 | inconclusive: 37.9 µM [inhibitor, single point] | 
56 | CCOc1ccc(CC(=O)NCc2cn3c(C)csc3n2)cc1 |  | inactive: 1.33%
57 | CCCCC1C(=O)N(c2ccccc2)N(c2ccc(O)cc2)C1=O (stereo unspecified) | inconclusive: 37.9 µM [inhibitor, partial curve, poor fit] | 
58 | Cc1nc(NC(=O)c2ccco2)sc1-c1csc(Nc2ccc(Cl)cc2)n1 | active: 10.7 µM | 
59 | Cc1ccc(NC(=O)c2csnn2)c(C)c1 |  | inactive: -14.4%
60 | O=S1(=O)N=C(Nc2nc3c(s2)CCCC3)c2ccccc21 | active: 0.849 µM | 
61 | CC(=O)Nc1cccc(C(=O)/C=C/c2ccc(N(C)C)cc2)c1 | active: 2.69 µM | 
62 | COc1ccccc1CNC(=O)C1CCN(S(=O)(=O)c2ccc(-n3cnnn3)cc2)CC1 |  | inactive: 0.412%
63 | O=C(COC(=O)c1ccc2[nH]c3c(c2c1)CCCC3)Nc1ccccc1 | inconclusive: 6.01 µM [inhibitor, partial curve, poor fit] | 
64 | O=C(O)CCSc1nnc(-c2ccc(Cl)cc2Cl)o1 | active: 0.849 µM | 
65 | CCSc1nnc(NC(=O)CSc2nnc(CNC(=O)c3ccccc3F)o2)s1 | inconclusive: 4.78 µM [inhibitor, partial curve, poor fit] | 
66 | O=C(OCc1ccc(COC(=O)c2cccnc2Cl)cc1)c1cccnc1Cl | inconclusive: 23.9 µM [inhibitor, partial curve, poor fit] | 
67 | CCc1nn2c(=O)cc(COc3ccc(/C=C4\C(=N)N5N=C(C)SC5=NC4=O)cc3)nc2s1 | inconclusive: 13.5 µM [inhibitor, partial curve] | 
68 | FC(F)Oc1ccccc1/C=N/Nc1nc2ccccc2o1 | inconclusive: 8.49 µM [inhibitor, partial curve] | 
69 | COc1ccc(OC)c(NC(=O)C2CCN(Cc3cnn(-c4ccccc4)c3-n3cccc3)CC2)c1 |  | inactive: 5.73%
70 | Cc1cccc(NC(c2nnc(-c3ccccc3)o2)c2ccc(F)cc2Cl)c1C (stereo unspecified) |  | inactive: -7.33%
71 | Cc1cc(C(=O)CN2C(=O)NC3(CCCc4ccccc43)C2=O)c(C)n1Cc1ccccc1 (stereo unspecified) | inconclusive: 13.5 µM [inhibitor, partial curve] | 
72 | COC(=O)COc1coc(CN2CCN(c3cccc(Cl)c3)CC2)cc1=O |  | inactive: 0.0781%
73 | Cc1cc(C)c(C)c(S(=O)(=O)N2CCN(c3ccc(O)cc3)CC2)c1C |  | inactive: -18%
74 | C#CCSc1nnc(-c2ccccc2)c(=O)[nH]1 |  | inactive: -13%
75 | O=C(CSc1ccc(Br)cc1)N1CCOCC1 | inconclusive: 33.8 µM [inhibitor, partial curve, poor fit] | 
76 | O=C(CN1CCCc2ccccc21)N/N=C/c1ccccc1 |  | inactive: -15.1%
